# Experimental data as given in patent publication US20110124501A1, “Active compound combinations” (Bayer CropScience AG, priority 2009, published 2011).
# Where “and” joins values, the source holds several entries; their conditions need not be identical. Equal values may be shown once.
# Tests used:
# [1] = test system: Plasmopara viticola; experiment: Plasmopara test (grapevines)/preventive
# Procedure: Plasmopara Test (Grapevines)/Preventive
# (§1) • Solvent: 24.5 parts by weight of acetone • 24.5 parts by weight of dimethylacetamide • Emulsifier: 1 part by weight of alkylaryl polyglycol ether
# (§2) To produce a suitable preparation of active compound, 1 part by weight of active compound is mixed with the stated amounts of solvent and emulsifier, and the concentrate is diluted with water to the desired concentration.
# To test for preventive activity, young plants are sprayed with the preparation of active compound at the stated rate of application. After the spray coating has dried on, the plants are inoculated with an aqueous spore suspension of Plasmopara viticola and then remain for 1 day in an incubation cabinet at approximately 20° C. and a relative atmospheric humidity of 100%. The plant is subsequently placed for 4 days in a greenhouse at approximately 21° C. and a relative atmospheric humidity of approximately 90%. The plants are then misted and placed for 1 day in an incubation cabinet.
# The test is evaluated 6 days after the inoculation. 0% means an efficacy which corresponds to that of the untreated control, while an efficacy of 100% means that no disease is observed.
# [2] = test system: Venturia inaequalis; experiment: Venturia test (apples)/preventive
# Procedure: Venturia Test (Apples)/Preventive
# as §1, §2
# (§3) To test for preventive activity, young plants are sprayed with the preparation of active compound at the stated rate of application. After the spray coating has dried on, the plants are inoculated with an aqueous conidia suspension of the causal agent of apple scab (Venturia inaequalis) and then remain for 1 day in an incubation cabinet at approximately 20° C. and a relative atmospheric humidity of 100%.
# The plants are then placed in a greenhouse at approximately 21° C. and a relative atmospheric humidity of approximately 90%.
# The test is evaluated 10 days after the inoculation. 0% means an efficacy which corresponds to that of the untreated control, while an efficacy of 100% means that no disease is observed.
# [3] = test system: Alternaria solani; experiment: Alternaria test (tomatoes)/preventive
# Procedure: Alternaria Test (Tomatoes)/Preventive
# as §1, §2
# as §3, with “spore” for “conidia”, “Alternaria solani. The plants are” for “the causal agent of apple scab (Venturia inaequalis) and”, “placed” for “remain for 1 day”
# The test is evaluated 3 days after the inoculation. 0% means an efficacy which corresponds to that of the untreated control while an efficacy of 100% means that no disease is observed.
# [4] = test system: Sphaerotheca fuliginea; experiment: Sphaerotheca test (cucumbers)/preventive
# Procedure: Sphaerotheca Test (Cucumbers)/Preventive
# as §1
# To produce a suitable preparation of active compound, 1 part by weight of active compound is mixed with the stated amounts of solvent and emulsifier, and the concentrate is diluted with water to the de-sired concentration.
# To test for protect activity, young plants are sprayed with the preparation of active compound at the stated rate of application. After the spray coating has dried on, the plants are inoculated with an aqueous spore suspension of Sphaerotheca fuliginea. The plants are then placed in a greenhouse at approximately 23° C. and a relative atmospheric humidity of approximately 70%.
# The test is evaluated 7 days after the inoculation. 0% means an efficacy which corresponds to that of the untreated control, while an efficacy of 100% means that no disease is observed.
# [5] = test system: Botrytis cinerea; experiment: Botrytis test (beans)/preventive
# Procedure: Botrytis Test (Beans)/Preventive
# as §1, §2
# To test for preventive activity, young plants are sprayed with the preparation of active compound. After the spray coating has dried on, 2 small pieces of agar covered with growth of Botrytis cinerea are placed on each leaf. The inoculated plants are placed in a darkened chamber at 20° C. and a relative atmospheric humidity of 100%.
# 2 days after the inoculation, the size of the lesions on the leaves is evaluated. 0% means an efficacy which corresponds to that of the untreated control, while an efficacy of 100% means that no disease is observed.
# [6] = test system: Blumeria graminis fsp. hordei; experiment: Blumeria test (barley)/preventive; format: in vivo; conditions: application rate 1000 ppm a.i.
# Source text: After the spray coating has been dried, the plants are dusted with spores of Blumeria graminis fsp. hordei.
# [7] = test system: Puccinia triticina; experiment: Puccinia triticina-test (wheat)/preventive; conditions: preventive, evaluated 8 days after inoculation
# Procedure: Puccinia triticina-Test (Wheat)/Preventive • Solvent: 49 parts by weight of n,n-dimethylacetamid • Emulsifier: 1 part by weight of alkylaryl polyglycol ether
# (§4) To produce a suitable preparation of active compound, 1 part by weight of active compound or active compound combination is mixed with the stated amounts of solvent and emulsifier, and the concentrate is diluted with water to the desired concentration.
# (§5) To test for preventive activity, young plants are sprayed with the preparation of active compound or active compound combination at the stated rate of application.
# After the spray coating has been dried, the plants are sprayed with a spore suspension of Puccinia triticina. The plants remain for 48 hours in an incubation cabinet at approximately 20° C. and a relative atmospheric humidity of approximately 100%.
# The plants are placed in the greenhouse at a temperature of approximately 20° C. and a relative atmospheric humidity of approximately 80%.
# The test is evaluated 8 days after the inoculation. 0% means an efficacy which corresponds to that of the untreated control, while an efficacy of 100% means that no disease is observed.
# [8] = test system: Septoria tritici; experiment: Septoria tritici-test (wheat)/preventive; conditions: preventive, evaluated 21 days after inoculation
# Procedure: Septoria tritici-Test (Wheat)/Preventive • Solvent: 49 parts by weight of n,n-dimethylacetamid • Emulsifier: 1 part by weight of alkylaryl polyglycol ether
# as §4, §5
# After the spray coating has been dried, the plants are sprayed with a spore suspension of Septoria tritici. The plants remain for 48 hours in an incubation cabinet at approximately 20° C. and a relative atmospheric humidity of approximately 100% and afterwards for 60 hours at approximately 15° C. in a translucent incubation cabinet at a relative atmospheric humidity of approximately 100%.
# The plants are placed in the greenhouse at a temperature of approximately 15° C. and a relative atmospheric humidity of approximately 80%.
# The test is evaluated 21 days after the inoculation. 0% means an efficacy which corresponds to that of the untreated control, while an efficacy of 100% means that no disease is observed.
substance,measurement,setting,value
"(1R)-1,2,3,4-tetrahydronaphthalen-1-yl 2-(1-{[3,5-bis(difluoromethyl)-1H-pyrazol-1-yl]acetyl}piperidin-4-yl)-1,3-thiazole-4-carboxylate [(I-8)]",Efficacy in % found,[1]; application rate 0.2 ppm a.i.,40%
same,Efficacy in % found,[1]; application rate 0.4 ppm a.i.,33% and 43%
same,Efficacy in % found,[2]; application rate 25 ppm a.i.,0%
same,Efficacy in % found,[2]; application rate 50 ppm a.i.,0%
same,Efficacy in % found,[2]; application rate 200 ppm a.i.,15%
same,Efficacy in % found,[3]; application rate 25 ppm a.i.,0%
same,Efficacy in % found,[3]; application rate 100 ppm a.i.,15%
same,Efficacy in % found,[3]; application rate 200 ppm a.i.,0%
same,Efficacy in % found,[4]; application rate 25 ppm a.i.,0%
same,Efficacy in % found,[4]; application rate 50 ppm a.i.,30%
same,Efficacy in % found,[5]; application rate 50 ppm a.i.,0%
same,Efficacy in % found,[5]; application rate 200 ppm a.i.,0%
same,Efficacy in % found,[6],33%
same,Efficacy in % found,[7]; 500 ppm a.i.,0%
same,Efficacy in % found,[7]; 1000 ppm a.i.,0%
same,Efficacy in % found,[8]; 500 ppm a.i.,0%
same,Efficacy in % found,[8]; 1000 ppm a.i.,0%
